{"source": "PubChem BioAssay AID686971", "about": "(National Center for Advancing Translational Sciences (NCATS), 2013)", "note": "In all, about 360,000 compounds went through this assay and about 7,500 (2.1%) were called active. The shares of active, inactive and inconclusive entries below differ from those in the screen. Calls come from the whole dose curve; as a rule, active = well fitted cell-killing curve with a large enough effect; inconclusive = small, poorly fitted or top-dose-only effect, or effect the other way, or another doubt; inactive = no such curve, though single readings can be large or run the other way. No potency is given beside an inconclusive call; the fits are too rough. Potency is the fitted concentration of half-maximal effect; tags give direction and shape of the fitted curve.", "data": [{"assay": "qHTS for induction of synthetic lethality in tumor cells producing 2HG: qHTS for the HT-1080-IDH1KD cell line;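 for activity, negative = toxicity: 0% = DMSO wells and -100% = cell-free medium wells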", "settings": "HT-1080 IDH1 knockdown viability, ATP luminescence, 48 h; activity, negative = toxicity: at 46.1 µM (top of the series) unless noted", "in_short": "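Luminescent ATP read-out (CellTiter-Glo, 10 min at room temperature) after 48 h compound exposure at 37 °C gave viability of IDH1-knockdown HT-1080 cells. Activity was normalised to DMSO and cell-free wells, then fitted as concentration-response curves.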", "values": [{"smiles": "COc1cc(C(=O)NC(C)c2cnn(-c3ccccc3C)c2C)cc(OC)c1OC", "note": "(configuration not stated)", "activity, negative = toxicity": "inactive: -18.8%"}, {"smiles": "Cc1ccsc1/C=N/NC(=O)c1sccc1C", "Potency": "inconclusive [cytotoxic, single point]"}, {"smiles": "c1ccc(CN=C(NCc2ccccc2)NCc2ccccc2)cc1", "Potency": "active: 16.4 µM"}, {"smiles": "COc1cc(CN2CCC(C(=O)NC(c3ccc(F)cc3)c3ccc4ccccc4n3)CC2)cc(OC)c1", "note": "(configuration not stated)", "Potency": "active: 3.26 µM"}, {"smiles": "COc1ccc(OC)c(NC(=O)C2(C)CCN2C(=O)C2(c3ccc(Cl)cc3)CCC2)c1", "note": "(configuration not stated)", "Potency": "inconclusive [cytotoxic, single point]"}, {"smiles": "CCCCCCCC(=O)NC(Nc1ccccc1OC)C(Cl)(Cl)Cl", "note": "(configuration not stated)", "Potency": "inconclusive [cytotoxic, single point]"}, {"smiles": "CCOC(=O)c1c[nH]c(=S)n(-c2ccccc2)c1=O", "Potency": "inconclusive [rising, single point]"}, {"smiles": "Cc1cccn2c(=O)c3cc(C(=O)N4CCN(Cc5ccccc5)CC4)sc3nc12", "activity, negative = toxicity": "inactive: -0.97%"}, {"smiles": "COc1cc(C(=O)Nc2cccc(-c3nc4cc(C)ccc4o3)c2C)cc(OC)c1OC", "Potency": "inconclusive [cytotoxic, single point]"}, {"smiles": "Nc1nonc1N/N=C\\c1ccccc1", "activity, negative = toxicity": "inconclusive: 30.4%"}, {"smiles": "Cc1cc(NCc2ccccn2)n2nc(C)c(-c3ccc(Cl)cc3)c2n1", "Potency": "active: 20.6 µM"}, {"smiles": "CCN1C(=O)CC(Sc2ccccc2C(=O)O)C1=O", "note": "(configuration not stated)", "activity, negative = toxicity": "inactive: 8.1%"}, {"smiles": "CCC(C)n1cnc2c(c1=O)c1nc3ccccc3nc1n2Cc1ccc(OC)cc1", "note": "(configuration not stated)", "activity, negative = toxicity": "inactive: 6.62%"}, {"smiles": "Cc1c(NC(=O)Nc2ccc(Cl)c(Cl)c2)sc(=S)n1C", "Potency": "inconclusive [cytotoxic, single point]"}, {"smiles": "CCn1c2ccccc2c2cc(NS(=O)(=O)c3ccc(C)cc3)ccc21", "Potency": "inconclusive [cytotoxic, partial curve]"}, {"smiles": "O=C(O)C1CCCN(S(=O)(=O)c2ccc(Br)s2)C1", "note": "(configuration not stated)", "Potency": "inconclusive [rising, single point]"}, {"smiles": "O=C(CSc1nc2ncc(Br)cc2[nH]1)Nc1ccccc1-c1ccccc1", "Potency": "inconclusive [cytotoxic, single point]"}, {"smiles": "CC(C)(C)C(=O)Nc1ccc(S(=O)(=O)c2ccc(NC(=O)C(C)(C)C)cc2)cc1", "Potency": "inconclusive [cytotoxic, single point]"}, {"smiles": "O=C(C1CCCCC1)N1CCC2CC1c1cc(-c3ccc4c(c3)OCO4)ccc12", "note": "(configuration not stated)", "Potency": "inconclusive [cytotoxic, single point]"}, {"smiles": "COc1cc(NC(=O)C2CCCN2C(=O)C2CCC(C)CC2)cc(OC)c1OC", "note": "(configuration not stated)", "activity, negative = toxicity": "inactive: 11.6%"}, {"smiles": "CN(Cc1ccc2nonc2c1)Cc1nc(Cc2cccc(F)c2)no1", "activity, negative = toxicity": "inactive: -4.85%"}, {"smiles": "C/C(=N\\NC(N)=O)c1ccc(-n2ccnc2)cc1", "activity, negative = toxicity": "inactive: 10.1%"}, {"smiles": "COc1ccc(-c2csc3nc(C)nc(N4CCCCC4)c23)cc1OC", "Potency": "inconclusive [cytotoxic, single point]"}, {"smiles": "COc1cccc(C(=O)NCc2ccc(-c3nc4ccccc4s3)cc2)c1", "activity, negative = toxicity": "inconclusive: -33.5% [cytotoxic]"}, {"smiles": "CC(C)OCCCNc1ncnc2c1[nH]c1ccc(F)cc12", "Potency": "inconclusive [cytotoxic, single point]"}, {"smiles": "CCOc1cccc(/C=C/c2ccc3ccccc3n2)c1OC(C)=O", "Potency": "inconclusive [cytotoxic, single point]"}, {"smiles": "CC(C)NC(=O)c1cc2cc(Br)ccc2oc1=O", "activity, negative = toxicity": "inactive: 2.06%"}, {"smiles": "CCCc1nc2c3ccccc3ccn2c1Cc1cccc(Cl)c1", "Potency": "inconclusive [cytotoxic, single point]"}, {"smiles": "Cc1cc(N2C(=O)C=CC2=O)c([N+](=O)[O-])cc1C", "Potency": "inconclusive [cytotoxic, single point]"}, {"smiles": "O=c1c2ccccc2sn1-c1ccccc1F", "Potency": "inconclusive [cytotoxic, single point]"}, {"smiles": "COc1c2occc2c(OC(C)=O)c2c(=O)cc(C)oc12", "Potency": "inconclusive [cytotoxic, single point]"}, {"smiles": "NC(Cc1ccccc1)c1csc(NC(=O)Nc2ccccc2Oc2ccccc2)n1", "note": "(configuration not stated)", "Potency": "inconclusive [cytotoxic, single point]"}, {"smiles": "CC1C=CCC2C(=O)N(c3cccc(C(=O)Nc4ccc(Br)cc4)c3)C(=O)C12", "note": "(configuration not stated)", "activity, negative = toxicity": "inconclusive: -30.3% [cytotoxic]"}, {"smiles": "CCOc1cc(C)c(-c2onc(C(F)(F)F)c2-c2csc(C)n2)c(O)c1", "Potency": "inconclusive [cytotoxic, single point]"}, {"smiles": "Cc1ccc(NNC2CC(=O)N(c3cccc(Cl)c3)C2=O)cc1", "note": "(configuration not stated)", "Potency": "inconclusive [cytotoxic, single point]"}, {"smiles": "CN(C(=O)c1cccc(NC(=O)Cc2ccc(NC(=O)C3CCN(C(=O)c4ccccc4)CC3)cc2)c1)C1CCCC1", "activity, negative = toxicity": "inactive: -17.4%"}, {"smiles": "CCSc1cnn(-c2ccccc2)c(=O)c1Cl", "Potency": "inconclusive [cytotoxic, single point]"}, {"smiles": "CCCNC(=O)c1ccc(N2CCC3(CC2)CC(c2cccc(Br)c2)=NO3)c(NC(=O)c2ccccc2)c1", "activity, negative = toxicity": "inactive: -11.3%"}, {"smiles": "CCOC(=O)c1c(CN2CCNCC2)nc2ccc(Cl)cc2c1-c1ccccc1", "Potency": "inconclusive [cytotoxic, single point]"}, {"smiles": "O=C(Cn1ncc2ccccc2c1=O)Nc1cccc(C(F)(F)F)c1", "activity, negative = toxicity": "inactive: -21.5%"}, {"smiles": "CC(=O)N(c1cccc(Br)c1)c1nc(C)cc(C)c1C#N", "activity, negative = toxicity": "inactive: -0.757%"}, {"smiles": "COc1cccc(C2c3cc4c(cc3OC(C)(N3CCCC3)C2C)OCO4)c1O", "note": "(configuration not stated)", "Potency": "inconclusive [cytotoxic, single point]"}, {"smiles": "CCC1NC(=O)c2cccnc2-n2c1nc1cc(OC)c(OC)cc1c2=O", "note": "(configuration not stated)", "activity, negative = toxicity": "inactive: 9.22%"}, {"smiles": "Oc1ccc(-c2nc3ccccn3c2NCc2ccc3c(c2)OCO3)cc1", "activity, negative = toxicity": "inactive: -11.7%"}, {"smiles": "CC1(C(=O)NS(=O)(=O)c2ccccc2Cl)CCN1C(=O)Cc1cccs1", "note": "(configuration not stated)", "Potency": "inconclusive [rising, single point]"}, {"smiles": "COc1ccc(OCC(=O)NNC(=O)c2ccc3c(=O)n4c(nc3c2)CCC4)cc1", "activity, negative = toxicity": "inactive: 9.52%"}, {"smiles": "CC(=O)Nc1ccc(NC(=O)CSc2ncc(C(=O)Nc3ccc(F)cc3)c(=O)n2C)cc1", "Potency": "inconclusive [cytotoxic, partial curve]"}]}]}
